# Measured values: the supplement of paper PMC8728848
# This is one part of the list.
# Tests used:
# Assay in all cases: glycan array binding signal (z-score within array); higher = stronger binding
# Conditions in all cases: glycan notation: IUPAC condensed, linker removed
# [1] = molecular target: Neu5Ac(a2-8)Neu5Ac(a2-3)[GalNAc(b1-4)]Gal(b1-4)Glc
# Summary of the method: (§1)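 The Consortium for Functional Glycomics database supplied 3228 glycan arrays, of which those lacking an available protein sequence were dropped. The binding signal, a within-array Z-score, was averaged across arrays of the same protein sequence and across linkers. Negative scores can be read as non-binding.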
# [2] = molecular target: Neu5Ac(a2-8)Neu5Ac(a2-8)Neu5Ac
# Summary of the method: as §1
# [3] = molecular target: Neu5Ac(a2-8)Neu5Ac(a2-8)Neu5Ac(a2-3)Gal(b1-4)Glc
# Summary of the method: as §1
# [4] = molecular target: Neu5Ac(a2-8)Neu5Ac(a2-8)Neu5Ac(a2-3)[GalNAc(b1-4)]Gal(b1-4)Glc
# Summary of the method: as §1
# [5] = molecular target: Neu5Ac(a2-8)Neu5Ac(a2-8)Neu5Ac(a2-8)Neu5Ac(a2-3)[GalNAc(b1-4)]Gal(b1-4)Glc
# Summary of the method: as §1
# [6] = molecular target: Neu5Ac(b1-6)GalNAc
# Summary of the method: as §1
# [7] = molecular target: Neu5Ac(b2-6)Gal(b1-4)GlcNAc
# Summary of the method: as §1
# [8] = molecular target: Neu5Ac9Ac(a2-6)Gal(b1-4)GlcNAc
# Summary of the method: as §1
# [9] = molecular target: Neu5Gc(a2-3)Gal(b1-3)GlcNAc
# Summary of the method: as §1
# [10] = molecular target: Neu5Gc(a2-3)Gal(b1-3)[Fuc(a1-4)]GlcNAc
# Summary of the method: as §1
# [11] = molecular target: Neu5Gc(a2-3)Gal(b1-4)Glc
# Summary of the method: as §1
# [12] = molecular target: Neu5Gc(a2-3)Gal(b1-4)GlcNAc
# Summary of the method: as §1
# [13] = molecular target: Neu5Gc(a2-3)Gal(b1-4)[Fuc(a1-3)]GlcNAc
# Summary of the method: as §1
# [14] = molecular target: Neu5Gc(a2-6)Gal(b1-4)GlcNAc
# Summary of the method: as §1
# [15] = molecular target: Neu5Gc(a2-6)GalNAc
# Summary of the method: as §1
binder,measurement,setting,value
"TREM-2 (Mus musculus), Q99NH8 (protein) MGPLHQFLLLLITALSQALNTTVLQGMAGQSLRVSCTYDALKHWGRRKAWCRQLGEEGPCQRVVSTHGVWLLAFLKKRNGSTVIADDTLAGTVTITLKNLQAGDAGLYQCQSLRGREAEVLQKVLVEVLEDPLDDQDAGDLWVPEESSSFEGAQVEHSTSRNQETSFPPTSILLLLACVLLSKFLAASILWAVARGRQKPGTPVVRGLDCGQDAGHQLQILTGPGGT",glycan array binding signal (z-score),[1],-0.193
same,glycan array binding signal (z-score),[2],-0.266
same,glycan array binding signal (z-score),[3],-0.398
same,glycan array binding signal (z-score),[4],-0.283
same,glycan array binding signal (z-score),[5],-0.306
same,glycan array binding signal (z-score),[6],-0.164
same,glycan array binding signal (z-score),[7],-0.237
same,glycan array binding signal (z-score),[8],-0.265
same,glycan array binding signal (z-score),[9],-0.366
same,glycan array binding signal (z-score),[10],-0.279
same,glycan array binding signal (z-score),[11],-0.315
same,glycan array binding signal (z-score),[12],-0.296
same,glycan array binding signal (z-score),[13],-0.273
same,glycan array binding signal (z-score),[14],-0.342
same,glycan array binding signal (z-score),[15],-0.368
